Experimental data published in article PMC12040169 (PLOS Biology, 2025).
Some of the results follow.

System: T1, C. trachomatis L2/434/Bu expressing GFP (CTL2-GFP)
T1 construct: L2/434/Bu GFP intracellular growth in HeLa cells
Set-up: species or system HeLa; C. trachomatis total inclusion area by high-content imaging, normalised to DMSO
Details: total inclusion area; 28.5 h, 10 µM; inhibitor
Procedure, shortened: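 After bulk GFP and resorufin fluorescence reads, cells were fixed, stained with Hoechst and imaged by high-content microscopy. Inclusion area and number (GFP) stood in for chlamydial growth, nuclei count (Hoechst) for host cell viability. MICs were derived as for the bulk readout.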

First: CN1CC(C(=O)N2C3CCC2CC(c2ccc(F)cc2)C3)CC1=O (stereo not shown) [CBK283769]
Second: Cc1nc(C(=O)NC2CC(=O)N(CCc3ccc(F)cc3)C2)cs1 (stereo not shown) [CBK307473]
The “% of control remaining” value of the first is higher: 101.412 for the first, 66.4711 for the second.

Compared with `C[C@H](Nc1nc(-c2cccc(C(N)=O)c2)cnc1N)c1ccccc1` [CBK063715], `c1cncc(Nc2cccc(-c3cnc4ccccc4c3)n2)c1` [CBK037638] is lower in “% of control remaining” value: 118.541 for the first, 89.1849 for the second.

First: Cc1ccc(S(=O)(=O)N(CC(=O)Nc2cccnc2)c2cccc(Br)c2)cc1 [CBK264094]
Second: Cc1ccc(N(CC(=O)Nc2cc(Cl)ccc2C)S(C)(=O)=O)cc1 [CBK264030]
The “% of control remaining” value of the first is lower: 87.5843 for the first, 93.0481 for the second.

Compared with `CC(C)(C)OC(=O)N1CCN(CCCOC2(C)SC(NC3CC4CCC3C4)=NC2=O)CC1` (stereo not shown) [CBK115612], `CC(=O)N1CCN(C[C@@H]2C=C(C)[C@H](Cc3nnc(C(C)(C)C)o3)C[C@H]2C(C)C)CC1` [CBK289221] is higher in “% of control remaining” value: 99.0804 for the first, 102.275 for the second.

Going from `COc1ccc2c3c([nH]c2c1)C(C)N(CCC(=O)NN)CC3` (stereo not shown) [CBK261726] to `COc1ccc(CC(=O)N2CCC[C@@H](N)[C@@H]2c2ccccc2F)cc1` [CBK283456], the “% of control remaining” value falls from 99.3537 to 75.4046.

Compared with `CN1CCN(c2nc3c(N)ncn(CC(O)CO)c-3n2)CC1` (stereo not shown) [CBK262571], `Cc1nc(N2CCCCC2)ncc1C(=O)NCCSc1nncn1C` [CBK306955] is lower in “% of control remaining” value: 97.8904 for the first, 52.8564 for the second.

First: COC(=O)c1cc(Cl)c(NC(=S)NC(=O)C(C)(C)C)cc1OC [CBK020937]
Second: COc1ccc(C(=O)CCC(=O)Nc2cccnc2)c(OC)c1 [CBK266923]
The “% of control remaining” value of the first is higher: 101.727 for the first, 88.9359 for the second.

First: CC(C)(CN)CN(Cc1c[nH]c(-c2ccccc2)n1)C(=O)Nc1ccc(C(C)(C)C)cc1 [CBK002462C]
Second: CC(C)(O)C#Cc1ccc(C(=O)NC(Cc2c[nH]c3ccccc23)C(=O)O)cc1 (stereo not shown) [CBK267703]
The “% of control remaining” value of the first is lower: 30.223 for the first, 99.3748 for the second.

Compared with `CC(C)NC(=O)Nc1ccccc1-c1ncn(C)n1` [CBK020922], `O=C(c1cncnc1)N1CCCc2ccccc21` [CBK200259] is higher in “% of control remaining” value: 80.9648 for the first, 84.3117 for the second.

Going from `CCC(CC)c1cc([C@H]2CN3CC[C@H]2C[C@@H]3CO)nc(-c2ccncc2)n1` [CBK289118] to `COCC(=O)N1CC[C@H](c2nnc(-c3ccncc3)o2)C1` [CBK289413], the “% of control remaining” value falls from 101.155 to 89.0879.

Compared with `O=C1CN(Cc2ccc3ccccc3n2)CCN1C1CCCC1` [CBK281961], `O=C(Nc1ccccc1N1CCCNCC1)c1ccnc2ccccc12` [CBK036325T] is higher in “% of control remaining” value: 87.4566 for the first, 89.7494 for the second.

First: CCOC(=O)N1CCC(NS(=O)(=O)c2ccc(C)c([N+](=O)[O-])c2)CC1 [CBK045468]
Second: O=C(CNS(=O)(=O)Cc1ccccc1[N+](=O)[O-])N1CCOCC1 [CBK042220]
The “% of control remaining” value of the first is lower: 77.4994 for the first, 90.3816 for the second.

First: O=C(NCc1cccc(C(F)(F)F)c1)c1cnoc1-c1ccc(Br)cc1 [CBK153718]
Second: O=C(NCc1ccc2c(c1)CCN2C(=O)c1ccncc1)c1cccnc1 [CBK288585]
The “% of control remaining” value of the first is higher: 119.082 for the first, 89.8978 for the second.

Going from `Cc1ccc2c(c1)OC(C)(C)CC2NC(=O)C1CCN(C)CC1` (stereo not shown) [CBK307626] to `CN1CCN(CC(=O)Nc2cc(C(F)(F)F)ccc2Cl)C(C)(C)C1` [CBK306363], the “% of control remaining” value falls from 93.5899 to 86.3096.

Going from `O=C(CC(NC1CCCCC1)C(=O)O)Nc1cccc(Cl)c1` (stereo not shown) [CBK266916] to `COCCN(CC1CC1)C(=O)c1cc(NC(C)=O)ccc1Cl` [CBK304352], the “% of control remaining” value rises from 95.4145 to 105.109.

Compared with `C=CCN(c1ccccc1)S(=O)(=O)c1ccc(C(C)(C)CC)cc1` [CBK200036], `CC(C)(c1ccccc1)c1ccc(OCc2ccc(S(=O)(=O)N3CCOCC3)cc2)cc1` [CBK267407] is higher in “% of control remaining” value: 93.1257 for the first, 99.3544 for the second.

Compared with `COc1ccc(-c2nnc(SCC(=O)c3ccc(C)o3)o2)cc1` [CBK268334], `COc1ccc(C(=O)Nc2nnc(C3=COCCO3)o2)cc1` [CBK287409] is higher in “% of control remaining” value: 98.7399 for the first, 104.278 for the second.

Compared with `C=CCn1c2ccccc2c2nnc(SCC(=O)Nc3c(C)n(C)n(-c4ccccc4)c3=O)nc21` [CBK263892], `Cc1cc(NC(=O)CN2CCC(Cc3ccccc3)CC2)nc2c1c(=O)oc1ccccc12` [CBK291261] is lower in “% of control remaining” value: 106.05 for the first, 97.4774 for the second.

Going from `Cc1ccc2c(c1)cc(C)c1nn(CC(=O)NC(C)(C)C)c(=O)n12` [CBK283875] to `Cc1ccc(C)c(S(=O)(=O)NCC(=O)Nc2nsc(-c3ccccc3)n2)c1` [CBK267304], the “% of control remaining” value rises from 95.1766 to 100.818.

Going from `CC1CCc2nc(NC(=O)Cn3cc(C(=O)Nc4ccc(F)cc4)ccc3=O)sc2C1` (stereo not shown) [CBK286053] to `O=C(O)c1ccc(NC(=O)c2cc(-n3cnnc3)ccc2Cl)cc1` [CBK286613], the “% of control remaining” value falls from 107.286 to 69.3923.

Compared with `Cc1cc(C)cc(CNC(=O)NCCc2cccs2)c1` [CBK043459], `O=C(/C=C\c1cccs1)NC(=S)Nc1ccc([N+](=O)[O-])cc1O` [CBK261231] is lower in “% of control remaining” value: 125.038 for the first, 104.929 for the second.

Going from `O=C(O)CCN1C(=O)/C(=C/c2ccc(C(=O)O)cc2)SC1=S` [CBK262785] to `O=C(O)Cn1nc(-c2ccccc2)c2ccccc2c1=O` [CBK287249], the “% of control remaining” value falls from 111.02 to 85.6639.

Compared with `O=C(c1ccccc1)c1cc(Cl)ccc1-n1ccnc1Br` [CBK016011], `CSc1nsc(SCC(=O)N(c2ccccc2)c2ccccc2)n1` [CBK269361] is higher in “% of control remaining” value: 79.5745 for the first, 112.563 for the second.

Going from `CC1(C)CC(N2CNC(=N)N(C#N)C2)CC(C)(C)N1` [CBK262008] to `CC(C)C[C@H](NC(=O)OC(C)(C)C)C(=O)N1CCC(C(=O)O)CC1` [CBK286742], the “% of control remaining” value falls from 93.6449 to 59.2626.

First: c1cc(-c2ccc(OC3CCNCC3)cc2)c2cccnc2c1 [CBK103528T]
Second: COc1ccc2oc(-c3ccc(NC(=O)c4cccc5ccccc45)cc3)nc2c1 [CBK267610]
The “% of control remaining” value of the first is lower: 72.7806 for the first, 96.1077 for the second.

First: CCN(CC)CCN1CCN(c2cc(-c3ccc(SC)cc3)ncn2)CC1 [CBK091203]
Second: CS(=O)(=O)N(CC(=O)N1CCN(Cc2ccc3c(c2)OCO3)CC1)c1cccc(F)c1 [CBK074572]
The “% of control remaining” value of the first is higher: 118.257 for the first, 82.6342 for the second.

Going from `O=C(Nc1nnc(-c2ccco2)o1)c1ccc2c(c1)CCCC2` [CBK287425] to `COc1cc(-c2nnc(NC(=O)c3ccc(C)cc3)o2)cc(OC)c1OC` [CBK287699], the “% of control remaining” value falls from 99.8671 to 83.1042.

Compared with `CN(C)S(=O)(=O)N1CCC(C(=O)O)(c2ccccc2)CC1` [CBK286681], `O=c1[nH]cc(S(=O)(=O)N2CCN(Cc3ccccc3Cl)CC2)c(=O)[nH]1` [CBK285889] is higher in “% of control remaining” value: 68.7464 for the first, 113.932 for the second.

First: CCOC(=O)C1(Cc2cc(-c3ccc(F)cc3)no2)CCCNC1 (stereo not shown) [CBK284579]
Second: Cc1ccc(C2NS(=O)(=O)NC2=N)cc1 (stereo not shown) [CBK263848]
The “% of control remaining” value of the first is lower: 72.1822 for the first, 87.0137 for the second.

Compared with `Cc1ccc(-c2nnc(N3CCN(S(=O)(=O)c4ccc(Cl)cc4)CC3)c3ccccc23)cc1` [CBK266759], `O=S(=O)(c1ccc(NC(=S)NCc2cccnc2)cc1)N1CCOCC1` [CBK268396] is lower in “% of control remaining” value: 96.9996 for the first, 84.0127 for the second.

Compared with `CN(C)S(=O)(=O)c1ccc(Cl)c(C(=O)Nc2cccc(O)c2)c1` [CBK265723], `CSc1ccc(NS(=O)(=O)c2ccc(NC(C)=O)c(Cl)c2)cc1` [CBK043566] is lower in “% of control remaining” value: 98.5496 for the first, 66.2398 for the second.

Compared with `CN1CCN(C(c2ccc(O)cc2)c2nnnn2Cc2ccccc2)CC1` (stereo not shown) [CBK084719], `COc1ccc(CO)cc1OCc1ccccc1` [CBK051334] is higher in “% of control remaining” value: 102.658 for the first, 127.82 for the second.

First: Clc1ccc(COc2nccnc2OCC2CCCO2)cc1Cl (stereo not shown) [CBK161587]
Second: OCCOc1cccnc1OCC1CC1 [CBK001461]
The “% of control remaining” value of the first is higher: 100.514 for the first, 92.7125 for the second.

First: CCCn1c(SCC(=O)Nc2cc(C(C)(C)C)no2)n[nH]c1=O [CBK295648]
Second: Cc1nc2c(c(C)c1CC(=O)NCc1cccc(C#N)c1)c(=O)[nH]n2C [CBK304959]
The “% of control remaining” value of the first is higher: 49.4662 for the first, 48.9208 for the second.

Going from `Cc1cc(-c2c(C)n(-c3ccccc3)[nH]c2=O)n2ncnc2n1` [CBK288441] to `CC1Cc2ccccc2N1C(=O)Cn1c(=O)n(C)c2ncccc21` (stereo not shown) [CBK283793], the “% of control remaining” value rises from 85.311 to 101.29.

Compared with `O=C(NCCCO)c1cc2ccccc2[nH]1` [CBK267638], `COc1cc(OC)cc(C(=O)Nc2ncccc2OCCCC#N)c1` [CBK304899] is lower in “% of control remaining” value: 106.241 for the first, 34.0567 for the second.

Going from `COc1ccc(CCNC(=O)CC2Sc3ccc(C(F)(F)F)cc3NC2=O)cc1OC` (stereo not shown) [CBK265341] to `CC(=O)N(C)c1nc(-c2cccc(N(C)C)c2)ccc1C(=O)NCCc1ccc(S(N)(=O)=O)cc1` [CBK076578], the “% of control remaining” value rises from 86.3989 to 88.7689.

Compared with `CCc1ccc(-c2cnccc2-n2ccnc2)cc1` [CBK177151], `O=C(C1=C(O)C(=O)N(CCCn2ccnc2)C1c1cccs1)c1ccc2c(c1)OCCO2` (stereo not shown) [CBK266170] is higher in “% of control remaining” value: 57.5674 for the first, 110.096 for the second.

First: CN(C)CCNc1ncnc2sc3c(c12)CCC3 [CBK265347]
Second: COc1ccc(C(NC(=O)c2cccc(OC)c2)c2cc(Cl)c3cccnc3c2O)cc1 (stereo not shown) [CBK264027]
The “% of control remaining” value of the first is lower: 98.5514 for the first, 108.038 for the second.

For `O=[N+]([O-])c1ccccc1N/N=C/c1c[nH]c2ccccc12` [CBK261679], the “% of control remaining” value was 106.8.
